Results: publication PMC3406007
No constants are given. Whether binding was seen depends on the method and setting. Some results given as binding are weak or reduced against the parent protein; the word gives no strength. Tags and fused reporters may be left off the sequences shown.

Experiments:
Assay in all cases: tandem affinity purification with western blot; TAP-tagged CDC20s and CCS52s as baits; tandem purified elutions separated by SDS-PAGE and probed with anti-OSD1 antibody; anti-CBP as loading control
[1] = target: T1, CCS52A1, TAP-tagged bait (Arabidopsis thaliana) (UniProt Q8L3Z8)
T1 sequence: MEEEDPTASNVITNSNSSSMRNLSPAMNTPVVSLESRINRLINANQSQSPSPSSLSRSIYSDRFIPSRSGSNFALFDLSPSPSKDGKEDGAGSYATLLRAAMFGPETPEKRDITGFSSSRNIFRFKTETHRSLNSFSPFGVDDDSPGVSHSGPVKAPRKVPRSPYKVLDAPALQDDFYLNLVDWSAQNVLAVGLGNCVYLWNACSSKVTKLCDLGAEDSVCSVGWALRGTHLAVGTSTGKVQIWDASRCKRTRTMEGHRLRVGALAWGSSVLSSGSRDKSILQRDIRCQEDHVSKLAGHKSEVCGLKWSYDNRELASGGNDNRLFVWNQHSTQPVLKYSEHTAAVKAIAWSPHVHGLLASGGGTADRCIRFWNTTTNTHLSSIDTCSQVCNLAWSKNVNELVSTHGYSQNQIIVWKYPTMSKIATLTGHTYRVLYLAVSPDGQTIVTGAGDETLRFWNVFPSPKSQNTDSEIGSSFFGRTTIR

[2] = target: T2, CCS52A2, TAP-tagged bait (Arabidopsis thaliana) (UniProt Q8VZS9)
T2 sequence: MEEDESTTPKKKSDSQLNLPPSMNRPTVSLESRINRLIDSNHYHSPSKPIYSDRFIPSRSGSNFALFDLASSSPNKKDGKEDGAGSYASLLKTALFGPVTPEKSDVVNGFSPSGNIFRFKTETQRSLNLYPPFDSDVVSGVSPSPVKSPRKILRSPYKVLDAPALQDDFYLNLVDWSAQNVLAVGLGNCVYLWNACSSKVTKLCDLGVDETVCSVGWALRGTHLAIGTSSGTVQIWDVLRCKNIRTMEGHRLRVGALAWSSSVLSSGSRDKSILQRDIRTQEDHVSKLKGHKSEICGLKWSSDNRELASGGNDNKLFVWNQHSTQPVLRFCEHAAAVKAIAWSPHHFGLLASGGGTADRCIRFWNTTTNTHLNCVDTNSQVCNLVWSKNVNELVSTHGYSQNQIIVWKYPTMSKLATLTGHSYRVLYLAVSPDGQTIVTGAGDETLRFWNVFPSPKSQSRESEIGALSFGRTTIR

[3] = target: T3, CDC20.3, TAP-tagged bait (Arabidopsis thaliana) (UniProt Q9S7H3)
T3 sequence: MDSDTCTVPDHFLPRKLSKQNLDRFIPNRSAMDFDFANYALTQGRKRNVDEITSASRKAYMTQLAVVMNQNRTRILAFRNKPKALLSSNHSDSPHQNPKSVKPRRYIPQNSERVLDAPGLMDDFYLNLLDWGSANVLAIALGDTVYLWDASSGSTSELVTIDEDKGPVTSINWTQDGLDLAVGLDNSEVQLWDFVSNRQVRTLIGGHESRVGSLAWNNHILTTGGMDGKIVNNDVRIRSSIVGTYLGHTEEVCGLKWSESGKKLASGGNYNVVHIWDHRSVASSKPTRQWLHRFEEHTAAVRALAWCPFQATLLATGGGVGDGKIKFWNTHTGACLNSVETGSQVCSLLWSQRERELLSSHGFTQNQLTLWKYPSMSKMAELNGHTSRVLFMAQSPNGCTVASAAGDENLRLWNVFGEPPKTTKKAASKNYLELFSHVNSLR

[4] = target: T4, CCS52B, TAP-tagged bait (Arabidopsis thaliana) (UniProt Q8LPL5)
T4 sequence: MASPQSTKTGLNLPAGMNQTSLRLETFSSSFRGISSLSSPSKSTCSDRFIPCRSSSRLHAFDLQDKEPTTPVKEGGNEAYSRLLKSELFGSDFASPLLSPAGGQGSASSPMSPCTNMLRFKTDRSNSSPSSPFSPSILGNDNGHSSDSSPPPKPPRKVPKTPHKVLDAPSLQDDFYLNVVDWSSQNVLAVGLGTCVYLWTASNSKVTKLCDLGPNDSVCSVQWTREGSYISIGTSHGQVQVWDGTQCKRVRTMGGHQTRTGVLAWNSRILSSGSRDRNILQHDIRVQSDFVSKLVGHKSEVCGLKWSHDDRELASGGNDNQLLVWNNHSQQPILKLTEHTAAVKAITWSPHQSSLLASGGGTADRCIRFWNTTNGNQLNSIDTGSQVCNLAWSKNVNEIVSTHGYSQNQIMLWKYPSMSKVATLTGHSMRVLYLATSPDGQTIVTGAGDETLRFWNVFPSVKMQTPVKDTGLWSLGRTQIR

B1: OSD1 detected in TAP elutions (protein, UniProt Q9M2R1 1-243)
chain: MPEARDRTERPVDYSTIFANRRRHGILLDEPDSRLSLIESPVNPDIGSIGGTGGLVRGNFTTWRPGNGRGGHTPFRLPQGRENMPIVTARRGRGGGLLPSWYPRTPLRDITHIVRAIERRRGAGTGGDDGRVIEIPTHRQVGVLESPVPLSGEHKCSMVTPGPSVGFKRSCPPSTAKVQKMLLDITKEIAEEEAGFITPEKKLLNSIDKVEKIVMAEIQKLKSTPQAKREEREKRVRTLMTMR
[1]
  binding: binds
[2]
  binding: binds
[3]
  binding: no binding
[4]
  binding: binds
